# Test results published in PubChem BioAssay AID2147 (National Center for Advancing Translational Sciences (NCATS), 2009).
# Where “and” joins values, the source holds several entries; their conditions need not be identical. Identical values can stand only once. The whole screen tested about 230,000 compounds, of which about 3,600 (1.6%) were called active. The inconclusive results got no clear call from the source; some entries with a clear call stand among them for comparison. Calls come from the whole dose curve; as a rule, active = well fitted inhibition curve with a large enough effect (not every such curve was filed as active); inconclusive = small, poorly fitted or top-dose-only effect, or another doubt; inactive = no such curve, though single readings can be large or run the other way. A potency beside an inconclusive call is a rough fit, not a confirmed value.
# Molecular target: Lysine-specific demethylase 4E (Homo sapiens) (UniProt B2RXH2)
# Test: qHTS Assay for Inhibitors of Human Jumonji Domain Containing 2E (JMJD2E)
# Conditions: JMJD2E catalytic domain, FDH-coupled NADH fluorescence (FDH is formaldehyde dehydrogenase); series mostly up to 57.1 µM; activity change, negative = inhibition: at the top concentration
# Note: nearly all actives have a fitted effect of over 50% in size.
# Potency is the fitted concentration of half-maximal effect; tags give direction and shape of the fitted curve.
# 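Throughout, for activity change, negative = inhibition: 0% = wells with enzyme and -100% = buffer wells without enzyme.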
# Sequence of UniProt B2RXH2 (B2RXH2 whole entry, looked up, the tested form may be a part): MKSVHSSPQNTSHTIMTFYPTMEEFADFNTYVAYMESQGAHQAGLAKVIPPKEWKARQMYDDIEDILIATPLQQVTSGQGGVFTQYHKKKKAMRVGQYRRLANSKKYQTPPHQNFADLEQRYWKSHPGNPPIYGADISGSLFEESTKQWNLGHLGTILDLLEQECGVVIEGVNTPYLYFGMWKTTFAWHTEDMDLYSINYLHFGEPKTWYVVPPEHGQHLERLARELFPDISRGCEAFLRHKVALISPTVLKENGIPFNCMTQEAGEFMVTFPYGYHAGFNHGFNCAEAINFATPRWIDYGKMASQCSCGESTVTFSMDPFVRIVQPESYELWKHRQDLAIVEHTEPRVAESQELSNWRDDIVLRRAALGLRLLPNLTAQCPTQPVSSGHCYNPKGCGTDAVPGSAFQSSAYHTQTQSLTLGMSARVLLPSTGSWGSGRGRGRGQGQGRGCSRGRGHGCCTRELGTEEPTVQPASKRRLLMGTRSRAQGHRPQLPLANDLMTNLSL
Structure (SMILES),"activity change, negative = inhibition",Potency
CC(C)N(C(=O)CSc1nc2ccccc2n1Cc1ccccc1)C(C)C,inactive: -7.23%,
COc1cc(NC(=O)Nc2cccc(Cl)c2)c(C(=O)O)cc1OC,,"inconclusive: 31.6 µM [inhibitor, partial curve]"
[O-]/C(=C(\C(=S)Nc1ccccc1F)[n+]1ccccc1)c1ccc(-c2ccccc2)cc1,,"inconclusive: 28.2 µM [inhibitor, single point]"
N#Cc1c(/N=C/c2ccco2)oc(-c2ccccc2)c1-c1ccccc1,,"inconclusive: 35.5 µM [inhibitor, single point]"
O=C(O)CC12CC3CC(C1)CC(n1ncc(NCc4ccccc4)c(Cl)c1=O)(C3)C2,inactive: 3.96%,
Cc1cc(C)c2c(=O)[nH]c(SCC(=O)c3ccc(F)c(C)c3)nc2n1,,"inconclusive: 6.31 µM [inhibitor, partial curve, poor fit]"
O=C(COC(=O)c1cccnc1Nc1ccccc1F)NC1CC1,,"inconclusive: 39.8 µM [inhibitor, single point]"
OC(c1cc(C(F)(F)F)nc2c(C(F)(F)F)cccc12)C1CCCCN1 (centres undefined),,"inconclusive: 39.8 µM [inhibitor, single point]"
CCCCn1cnc(C(=O)OCC)c1N,inactive: 3.68%,
CN(C(=O)COC(=O)c1ccc(Cl)cc1N)C1CCS(=O)(=O)C1 (centres undefined),,"inconclusive: 31.6 µM [inhibitor, partial curve]"
Cc1ccc(-c2csc3nc4c5ccccc5c(NCCCN5CCOCC5)nn4c(=O)c23)cc1,,"inconclusive: 14.1 µM [inhibitor, partial curve]"
N#CC(C(=O)NC1CC1)c1nc2ccccc2nc1N1CCCC1 (centres undefined),,"inconclusive: 35.5 µM [inhibitor, partial curve]"
COc1ccc(/C=C/c2nc3ccccc3n2C)cc1,,"inconclusive: 28.2 µM [inhibitor, partial curve]"
O=C(NCc1cccnc1)c1cnn2ccccc12,,"inconclusive: 28.2 µM [inhibitor, partial curve]"
Cc1ccc(OCc2nc(C#N)c(NCCCn3ccnc3)o2)cc1,,"inconclusive: 28.2 µM [inhibitor, partial curve]"
COc1ccc(OC)c(Nc2ccc(Nc3cc(OC)ccc3OC)nn2)c1,inactive: -4.01%,
Cc1ccc(-c2cc(C(F)F)nc(N3CCC(C)CC3)n2)cc1,,"inconclusive: 22.4 µM [inhibitor, partial curve]"
O=C(NCCCn1ccnc1)Nc1cccc2ccccc12,,"inconclusive: 25.1 µM [inhibitor, single point]"
Cc1ccc(-c2ccc(CCC(=O)O)n2C(C)C)cc1,,"inconclusive: 31.6 µM [inhibitor, partial curve]"
Clc1ccc(OCCN2CCOCC2)cc1Cl,,"inconclusive: 39.8 µM [inhibitor, single point]"
CCOC(=O)c1sc2nc3c(cc2c1N)COC(C(C)C)C3 (centres undefined),,"inconclusive: 3.98 µM [inhibitor, single point]"
CCCCCCN1C=CC=C/C1=C\C=C(C#N)C#N,inactive: -8.01%,
COc1ccc(C(=O)N(C)c2c(C)n(C)n(-c3ccccc3)c2=O)cc1OC,inactive: -5.59%,

Structure (SMILES),"activity change, negative = inhibition",Potency
O=C(O)CCCC/C=C\C[C@@H](O)/C=C/C=C/C=C\[C@@H](O)CCCC(=O)O,inactive: -8.34%,
CCOC(=O)c1ccc(N2C(=O)CC(N3CCC(O)(c4ccc(Cl)cc4)CC3)C2=O)cc1 (centres undefined),inactive: 7.53%,
COCC(C)OC(=O)c1c(N)n(CC(C)C)c2nc3ccccc3nc12 (centres undefined),,"inconclusive: 25.1 µM [inhibitor, partial curve]"
Cc1nnc(Sc2c(-c3ccccc3)c3ccc(Cl)cc3[nH]c2=O)s1,,"inconclusive: 28.2 µM [inhibitor, single point]"
CC1CCN(C(=O)Nc2ccc3nsnc3c2)CC1,,"inconclusive: 25.1 µM [inhibitor, partial curve]"
COc1ccc(N2C(=O)C3C(C2=O)C(C(=O)c2ccc(Cl)cc2)N2CCCC32)cc1 (centres undefined),,"inconclusive: 28.2 µM [inhibitor, single point]"
CSc1ccccc1NC(=S)NC1CCCCC1,inactive: -0.548%,
COc1ccc2c(C=O)c[nH]c2c1,,"inconclusive: 39.8 µM [inhibitor, single point]"
O=C(O)C1CCN(c2ncccn2)CC1,,"inconclusive: 25.1 µM [inhibitor, single point]"
CCN(CC(=O)NC(C)(C)C)C(=O)COc1c(Cl)cc(Cl)c2ccc(C)nc12,,"inconclusive: 28.2 µM [inhibitor, partial curve]"
O=C(O)c1ccc(Cl)c(S(=O)(=O)Nc2ccc3cn[nH]c3c2)c1,inactive: -3.31%,
O=C(CNC(=O)c1ccco1)OCc1ccc(C(=O)c2ccccc2)cc1,inactive: 14.2%,
COCCn1c(=N)c(C(=O)NCc2ccco2)cc2c(=O)n3ccccc3nc21,,"inconclusive: 25.1 µM [inhibitor, partial curve]"
COc1ccc(-n2nnnc2SCC(=O)NCc2ccco2)cc1OC,inactive: 1.1%,
CCC(CC)C(=O)Nc1nnc(SCC(=O)N2CCN(c3ccccc3OC)CC2)s1,inactive: -5%,
CC(=O)Nc1sc(C)c(C)c1C(=O)OCC(=O)Nc1cc(S(C)(=O)=O)ccc1Cl,,"inconclusive: 39.8 µM [inhibitor, single point]"
Nc1cccc(-c2nc3cc(S(=O)(=O)c4ccc5oc(-c6cccc(N)c6)nc5c4)ccc3o2)c1,,"inconclusive: 39.8 µM [inhibitor, single point]"
O=C(O)c1cc(N/N=C/C=C/c2ccccc2)ccc1Cl,,"inconclusive: 31.6 µM [inhibitor, partial curve]"
CC(=O)N[C@@H](C(=O)O)C(C)(C)SN=O,inactive: -16.2%,
CCCCCNc1nc2sc3c(c2c(=O)n1-c1cccc(Cl)c1)CCN(C)C3,,"inconclusive: 28.2 µM [inhibitor, partial curve]"
O=C(Nc1cccc(-c2cn3ccccc3n2)c1)C1CC1,,"inconclusive: 25.1 µM [inhibitor, partial curve]"
N#Cc1c(NCCO)nc(NCc2ccccc2)c2c1CCN(Cc1ccccc1)C2,,"inconclusive: 25.1 µM [inhibitor, partial curve]"
COc1ccc(-c2[nH]n(-c3ccc([N+](=O)[O-])cc3)c(=O)c2C=NCc2ccc(F)cc2)cc1,inactive: 8.26%,

Structure (SMILES),"activity change, negative = inhibition",Potency
Cc1ccc2cc(CN(C(=O)c3cccnc3)C(C)C)c(=O)[nH]c2c1,,"inconclusive: 28.2 µM [inhibitor, partial curve]"
COc1cc(NC(=O)CN2c3cccc4cccc(c34)S2(=O)=O)cc(OC)c1OC,,"inconclusive: 31.6 µM [inhibitor, partial curve]"
O=c1c([N+](=O)[O-])c(N2CCCCCC2)c2ccccc2n1-c1ccccc1,inactive: 4.74%,
COc1ccc2cnn(-c3ccc(OC(F)(F)Cl)cc3)c(=O)c2c1OC,,"inconclusive: 39.8 µM [inhibitor, single point]"
C=CCn1c(-c2cccs2)nc2ccccc21,,"inconclusive: 28.2 µM [inhibitor, partial curve]"
COc1ccc(-c2cc3ccccc3n2CC(O)CNC(CO)(CO)CO)cc1 (centres undefined),,"inconclusive: 28.2 µM [inhibitor, partial curve]"
CC(CC1C(C#N)=C(N)SC(N)=C1C#N)c1ccccc1 (centres undefined),,active: 22.4 µM
Cc1ccc(CN2C(=O)N/C(=C\c3ccc(N4CCOCC4)cc3)C2=O)cc1,,"inconclusive: 39.8 µM [inhibitor, single point]"
Cc1cc(Cl)ccc1Oc1nc(-c2ccc(F)cc2)ccc1C#N,,"inconclusive: 3.16 µM [inhibitor, full curve]"
CCOC(=O)C1=C(O)c2ccccc2C(=O)/C1=C\c1ccc(C)cc1,,"inconclusive: 3.16 µM [inhibitor, full curve]"
COc1ccc(-c2ccc(CCC(=O)O)n2CC2CCCO2)cc1 (centres undefined),,"inconclusive: 28.2 µM [inhibitor, partial curve]"
O=C(CSCc1ccccc1Cl)NNC(=S)Nc1ccccc1,inactive: 2.98%,
Cc1coc2c1C(=O)C(=O)c1c-2ccc2c1CCCC2(C)C,,"inconclusive: 20 µM [inhibitor, partial curve] and inconclusive: 25.1 µM [inhibitor, partial curve] and inconclusive: 17.8 µM [inhibitor, partial curve]"
Clc1ccc(Nc2ccc(NCc3ccccc3)nn2)cc1,,"inconclusive: 35.5 µM [inhibitor, single point]"
O=C(Nc1cccc(F)c1)c1coc(=O)c(Br)c1,,"inconclusive: 3.16 µM [inhibitor, full curve]"
CC(C)(C)n1ncc2c(=O)n(Cc3cccc(Cl)c3)cnc21,inactive: 3.3%,
O=[N+]([O-])c1ccc(CN2CCN(Cc3c[nH]c4ccccc34)CC2)cc1,,"inconclusive: 25.1 µM [inhibitor, single point]"
Cc1cccc(C)c1NC(=O)COC(=O)c1cc(-c2cccnc2)nc2ccccc12,,"inconclusive: 35.5 µM [inhibitor, single point]"
CCNC(=O)C(=O)N/N=C/c1cc([N+](=O)[O-])ccc1O,,active: 25.1 µM
C=CCN(CC=C)Cc1c(C)[nH]c2c(C)c(C)ccc2c1=O,,"inconclusive: 35.5 µM [inhibitor, single point]"
O=C1Cc2c([nH]c3ccc(Br)cc23)-c2ccccc2N1,,"inconclusive: 25.1 µM [inhibitor, single point]"
CC(C)(C)OC(=O)N/N=C\c1ccc(OC(=O)c2ccco2)cc1,,"inconclusive: 25.1 µM [inhibitor, single point]"
Cc1cc(C)n(Cc2ccc(F)cc2)c(=O)c1C#N,,"inconclusive: 39.8 µM [inhibitor, single point]"
